# Experimental data published in the supplement of paper PMC12217912.
# This is one part of the list. Sequences were assembled here from the parent chain. Values near 0.05 are background.
# B1: TEV protease; numbered along this chain (parent)
# chain: MGESLFKGPRDYNPISSSICHLTNESDGHTTSLYGIGFGPFIITNKHLFRRNNGTLVVQSLHGVFKVKDTTTLQQHLVDGRDMIIIRMPKDFPPFPQKLKFREPQREERICLVTTNFQTKSMSSMVSDTSCTFPSGDGIFWKHWIQTKDGQCGSPLVSTRDGFIVGIHSASNFTNTNNYFTSVPKNFMELLTNQEAQQWVSGWRLNADSVLWGGHKVFMVKPEEPFQPVKEATQL
# Variants of: B1
# Assay: raw area under fraction-flipped curve 0-4 h after induction (AUC4h, not background-subtracted), DNA-recorder readout of cleavage of the substrate (dimensionless); higher = more cleavage of the substrate by the protease variant
# Details: temperature: 34 °C; time window: 0-4 h after rhamnose induction
# Description: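 In vivo DNA recorder in E. coli TOP10(DE3) ΔrhaA at 34 °C. Each TEVp single-site mutant (parent TEVp 0) is paired with a single-site variant of the 7-mer TEVs (canonical ENLYFQ|S). The substrate sits between flexible linkers in a Bxb1-sfGFP-TEVs-SsrA fusion, so cleavage stabilises Bxb1 and speeds flipping of a recombination array, read by NGS. The value is the raw area under the fraction-flipped curve over 0-4 h after rhamnose induction (AUC4h), with ≥20 reads per time point. It is not background-subtracted; inactive controls average about 0.047.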
# 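Note: Bxb1 expression induced with 0.2% (w/v) L-rhamnose at OD600 near 0.5, cultures sampled hourly, flipped fraction per protease–substrate barcode pair counted by paired-end Illumina sequencing.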
Variant,area with substrate CNLYFQS,area with substrate FNLYFQS,area with substrate GNLYFQS,area with substrate HNLYFQS,area with substrate INLYFQS,area with substrate KNLYFQS,area with substrate LNLYFQS,area with substrate MNLYFQS,area with substrate NNLYFQS,area with substrate PNLYFQS,area with substrate SNLYFQS,area with substrate TNLYFQS,area with substrate VNLYFQS,area with substrate WNLYFQS,area with substrate YNLYFQS,area with substrate RNLYFQS,area with substrate QNLYFQS,area with substrate DNLYFQS
N45Q,0.0536,0.0623,0.0508,0.0598,0.0561,0.0852,0.058,0.0379,0.0528,0.0638,0.0588,0.0576,0.0536,,,,,
N45S,0.0686,0.061,,0.0537,0.0555,0.0666,0.0554,0.0573,0.0772,0.0693,0.051,,,0.0548,0.0575,,,
N45D,0.0454,,0.0553,0.0611,0.0534,0.0658,0.0592,0.0471,0.0534,0.0617,0.0589,0.0574,0.0491,0.0534,0.0468,,,
N53A,0.0687,0.0436,0.049,0.0584,0.0575,,0.0591,0.064,,0.0568,,0.0591,0.0763,0.0629,0.0801,0.0563,,
N53G,0.0628,0.0535,0.0835,0.0615,0.0688,0.0692,0.0653,,,0.0604,,0.0675,0.0412,0.0585,0.0535,0.0576,,
I42G,0.0302,0.0428,0.0441,0.0475,0.0373,0.0355,0.0427,0.0453,,0.0515,0.0499,0.0463,0.043,0.0375,,,0.0393,
I42W,0.0581,0.0546,0.0548,0.0485,0.0412,0.0504,0.0509,0.0573,,0.0695,0.0529,0.0536,0.0761,0.0453,0.0474,,0.0469,
I42D,0.044,,,0.0489,,,0.0298,,,0.0451,0.0416,0.0284,,0.0397,0.0668,,,
L48H,0.0636,,,0.0642,,,0.0695,0.0666,0.0654,0.0633,0.0543,,0.0714,,0.0574,,0.0466,
D69Q,0.0608,0.063,0.0838,0.0684,0.0607,0.0446,0.0666,0.0548,,0.0623,0.0637,0.0629,,0.0463,0.0703,,0.0623,
D69H,0.0868,0.0575,0.0652,0.0569,0.0594,0.0523,,,,0.0598,,0.0624,0.0495,0.0577,,,0.0481,
L61A,0.0667,0.061,,0.0567,,,,0.0643,,0.068,0.0696,0.0723,,,0.0652,0.0485,,
L61N,0.0707,,,,0.0692,,,0.0746,0.0652,0.0633,0.0702,,,0.0578,,,,0.0758
S60F,0.0709,0.0671,,,0.0462,0.0609,0.0739,0.0663,0.0764,0.0811,0.0762,0.0605,,0.0568,0.0679,,0.0719,
S60V,0.0666,0.0651,0.0733,0.0522,0.0709,0.0771,0.0601,0.0638,,0.0629,0.0595,0.063,0.0526,0.0573,0.0555,0.0571,,
V64N,0.0707,0.0572,0.0696,0.0627,0.0679,0.0844,,0.0644,0.0733,0.0589,0.067,0.0647,0.0602,0.0633,0.049,,,
L73G,0.0556,0.0327,,0.0457,0.0474,0.0415,0.0638,0.051,,,0.0411,0.054,,0.0855,0.0429,,,
T55E,0.0741,,,0.0656,0.0623,0.0675,0.057,,,0.0483,0.0656,0.0604,0.0632,0.0543,0.0569,,0.0701,
T55I,0.0573,,,0.064,0.056,,0.0771,0.0684,0.0676,0.0752,0.0679,0.0663,,,0.0504,,,
Q59V,0.0348,0.0607,0.0597,0.0333,,,0.0783,,0.0687,,,0.062,,0.0575,0.0793,,,
G63M,0.113,,,0.0567,0.0536,,0.0641,,0.0676,0.112,0.0563,0.0659,0.0597,0.0601,,0.0524,0.053,
G63I,0.0607,0.0782,,0.0619,0.0556,,0.0487,0.0922,0.0617,0.0608,0.0454,0.0645,,0.0536,0.0515,,,
G63F,0.0502,0.0482,0.064,0.0407,,,0.0596,0.0511,0.0554,0.0579,0.0661,0.0689,,0.0484,0.0636,0.0568,,
G63N,0.058,0.0529,0.0643,,,,0.0758,,0.0597,0.0585,,,,0.0509,0.0566,,,
R51C,0.0581,0.0682,0.0689,0.065,,0.0958,0.0607,0.0615,0.0647,0.0598,0.0682,0.0632,,0.0625,0.0681,,,
R51M,0.0673,0.0719,,0.0631,0.0675,0.1,0.0645,0.0737,0.076,0.0496,,0.0659,,0.053,0.0632,,,
T71A,0.0595,0.06,,0.0526,0.0835,,0.0672,0.053,,0.068,0.0671,0.0607,,0.0619,0.0698,,0.0625,
T71F,0.0876,,0.0687,0.066,0.0636,0.059,0.0482,0.058,0.0581,0.0656,0.0479,0.0699,0.0545,0.0499,0.0513,,,
I43V,0.0709,0.0651,,0.0623,0.0539,,0.0605,0.054,0.0552,,,0.0826,,0.0516,0.0802,,,
